At least one peptide structure holds a part that was inferred or is arguable (an end, a ring closure or a residue). Numbered stars: 1 amine (or outer) side, 2 acyl side, 3 side chain; on linkers, the order of the positions; unused ones are H or OH. Bridge positions count the residues as written; N and C are the ends. Square brackets hold non-standard residues; d marks the D form. Peptide text beside a SMILES is read from it. * marks the point of attachment. C20 diacid = O=C(O)CCCCCCCCCCCCCCCCCCC(=O)*; γGlu = O=C(O)[C@H](CCC(=O)[*:2])N[*:1]; Hyp = O=C(O)[C@@H]1C[C@@H](O)CN1
Assay: Freeze-thaw stability of derivatives (freeze-thaw yield by liquid chromatography)
Format: physicochemical
Conditions: for Dissolution property: appearance after dissolution at 0.2 mg/ml in 20 mM phosphate buffer solution (PB) (pH 7.0); for Freeze storage property: appearance after overnight storage at −20° C. and thawing to room temperature, 0.2 mg/ml in 20 mM PB (pH 7.0); for Freeze storage yield: concentration of polypeptide after freezing and thawing / concentration before, by liquid chromatography, −20° C. overnight
In short: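 Freeze-thaw yield is the ratio of peptide concentration after versus before one overnight −20° C freeze and room-temperature thaw, both quantified by RP-HPLC of supernatant after centrifugation. Samples were 0.2 mg/ml freeze-dried derivative in 20 mM PB, pH 7.0.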

Row | Structure (SMILES) | Dissolution property | Freeze storage property | Freeze storage yield [%]
1 | CC[C@H](C)[C@H](NC(=O)[C@@H]1CCCN1C(=O)CNC(=O)[C@H](CC(C)C)NC(=O)[C@H](CC(N)=O)NC(=O)[C@H](CC(N)=O)NC(=O)[C@H](CO)NC(=O)[C@H](CO)NC(=O)[C@H](Cc1c[nH]cn1)NC(=O)[C@H](CCCNC(=N)N)NC(=O)[C@H](CC(C)C)NC(=O)[C@H](Cc1ccccc1)NC(=O)[C@H](CC(=O)O)NC(=O)[C@H](C)NC(=O)[C@H](CC(C)C)NC(=O)[C@H](CCCNC(=N)N)NC(=O)[C@H](CCC(N)=O)NC(=O)[C@@H](NC(=O)[C@H](C)NC(=O)[C@@H]1CSSC[C@H](NC(=O)[C@H](Cc2c[nH]cn2)NC(=O)CC[C@H](NC(=O)CCCCCCCCCCCCCCCCCCC(=O)O)C(=O)O)C(=O)N[C@@H](CC(N)=O)C(=O)N[C@@H]([C@@H](C)O)C(=O)N[C@@H](C)C(=O)N[C@@H]([C@@H](C)O)C(=O)N1)[C@@H](C)O)C(=O)N[C@@H](CC(C)C)C(=O)N1CCC[C@H]1C(=O)N1CCC[C@H]1C(=O)N[C@H](C(=O)N[C@@H](CC(N)=O)C(=O)N[C@H](C(=O)NCC(=O)N[C@@H](CO)C(=O)N[C@@H](CC(N)=O)C(=O)N[C@H](C(=O)N1C[C@H](O)C[C@H]1C(N)=O)[C@@H](C)O)C(C)C)[C@@H](C)O [PD128] ({C20 diacid-γGlu}-HCNTATCATQRLADFLRHSSNNLGPILPPTNVGSNT[Hyp]-NH2; disulfide 2-7) | Clear | Clear | 97.05
2 | CC[C@H](C)[C@H](NC(=O)[C@@H]1CCCN1C(=O)CNC(=O)[C@H](CC(C)C)NC(=O)[C@H](CC(N)=O)NC(=O)[C@H](CC(N)=O)NC(=O)[C@H](CO)NC(=O)[C@H](CO)NC(=O)[C@H](Cc1c[nH]cn1)NC(=O)[C@H](CCCNC(=N)N)NC(=O)[C@H](CC(C)C)NC(=O)[C@H](Cc1ccccc1)NC(=O)[C@H](CC(=O)O)NC(=O)[C@H](C)NC(=O)[C@H](CC(C)C)NC(=O)[C@H](CCCNC(=N)N)NC(=O)[C@H](CCC(N)=O)NC(=O)[C@@H](NC(=O)[C@H](C)NC(=O)[C@@H]1CSSC[C@H](NC(=O)[C@H](CCCCN)NC(=O)CCCCCCCCCCCCCCCCCCC(=O)O)C(=O)N[C@@H](CC(N)=O)C(=O)N[C@@H]([C@@H](C)O)C(=O)N[C@@H](C)C(=O)N[C@@H]([C@@H](C)O)C(=O)N1)[C@@H](C)O)C(=O)N[C@@H](CC(C)C)C(=O)N1CCC[C@H]1C(=O)N1CCC[C@H]1C(=O)N[C@H](C(=O)N[C@@H](CC(N)=O)C(=O)N[C@H](C(=O)NCC(=O)N[C@@H](CO)C(=O)N[C@@H](CC(N)=O)C(=O)N[C@H](C(=O)N1C[C@H](O)C[C@H]1C(N)=O)[C@@H](C)O)C(C)C)[C@@H](C)O [PD129] ({C20 diacid}-KCNTATCATQRLADFLRHSSNNLGPILPPTNVGSNT[Hyp]-NH2; disulfide 2-7) | Clear | Clear | 106.67
3 | CC[C@H](C)[C@H](NC(=O)[C@@H]1CCCN1C(=O)CNC(=O)[C@H](CC(C)C)NC(=O)[C@H](CC(N)=O)NC(=O)[C@H](CC(N)=O)NC(=O)[C@H](CO)NC(=O)[C@H](CO)NC(=O)[C@H](Cc1c[nH]cn1)NC(=O)[C@H](CCCNC(=N)N)NC(=O)[C@H](CC(C)C)NC(=O)[C@H](Cc1ccccc1)NC(=O)[C@H](CC(=O)O)NC(=O)[C@H](C)NC(=O)[C@H](CC(C)C)NC(=O)[C@H](CCCNC(=N)N)NC(=O)[C@H](CCC(N)=O)NC(=O)[C@@H](NC(=O)[C@H](C)NC(=O)[C@@H]1CSSC[C@H](NC(=O)[C@H](CCCCN)NC(=O)[C@H](CCC(=O)O)NC(=O)CCCCCCCCCCCCCCCCCCC(=O)O)C(=O)N[C@@H](CC(N)=O)C(=O)N[C@@H]([C@@H](C)O)C(=O)N[C@@H](C)C(=O)N[C@@H]([C@@H](C)O)C(=O)N1)[C@@H](C)O)C(=O)N[C@@H](CC(C)C)C(=O)N1CCC[C@H]1C(=O)N1CCC[C@H]1C(=O)N[C@H](C(=O)N[C@@H](CC(N)=O)C(=O)N[C@H](C(=O)NCC(=O)N[C@@H](CO)C(=O)N[C@@H](CC(N)=O)C(=O)N[C@H](C(=O)N1C[C@H](O)C[C@H]1C(N)=O)[C@@H](C)O)C(C)C)[C@@H](C)O [PD130] ({C20 diacid}-EKCNTATCATQRLADFLRHSSNNLGPILPPTNVGSNT[Hyp]-NH2; disulfide 3-8) | Clear | Clear | 107.64

From patent US20260166128A1, “HUMAN AMYLIN ANALOG, AND DERIVATIVE THEREOF AND USE THEREOF” (priority 2022, published 2026)
